From the supplement of paper PMC11417369
± gives the standard deviation of the averaged measurements. This is one part of the list.

test system: PfAP2-EXP AP2 domain (GST-tagged); assay: gcPBM binding intensity (ln(normalized median fluorescence intensity)); higher = stronger DNA binding
Outline: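 The binding buffer was 1× PBS containing 1% milk, 0.2 mg/ml BSA, 0.5% salmon testes DNA and 0.03% Triton X-100. In it, GST-tagged P. falciparum DNA-binding domains expressed in E. coli were applied for 1 h to an Agilent 4 × 180k array of primer-extended double-stranded 36-bp intergenic genomic probes plus negative controls. Binding intensity, read with Alexa488 anti-GST antibody and a 488 nm scan, is the highest Masliner-normalised natural-log median intensity across replicate spots of either probe orientation.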

| Sequence | gcPBM binding intensity (ln) |
| --- | --- |
| ATGATATGGATAAATACACACAATATAATAATGGGT [CACACA_site4905] | 8.74 ± 0.34 |
| ATATGTATAAATATAAATATATATATATATATATAT [CACACA_negctrl_site705] | 10.1 ± 0.29 |
| ATTTTATATATGTGTTGTACGGTGAACATTTTGATA [XGTACX_site6538] | 8.71 ± 0.43 |
| ACGTTAATATCTACAAGTACCCACATTAACAGGAAA [XGTACX_site2616] | 8.71 ± 0.33 |
| TATATAAACATCGGTAGTACACACATTCATGTATTT [XGTACX_site6443] | 8.7 ± 0.46 |
| GGATCATTTTTAAAGGAACACACAAAAAAAATTATA [CACACA_site8381] | 8.64 ± 0.49 |
| TTTTTTTTGAAGAATACATGCATATTTTCTATATTC [TGCATGCA_site43] | 8.53 ± 0.33 |
| ATATAAAATATGTATGAGGAATAAAATTAAAAAAAA [XGTACX_negctrl_site173] | 8.47 ± 0.47 |
| TATTAAATATATATTACATGCAAAAAAAAAAAACAA [TGCATGCA_site705] | 8.72 ± 0.16 |
| ATAAAAAAAGATGAACGTACATATATTTTAAAAATC [XGTACX_site5950] | 8.7 ± 0.45 |
| ACAATATGCAAAAAGTGTACACATTCATTTATATAA [XGTACX_site1061] | 8.66 ± 0.28 |
| AATATACAAATAAAGGTGCGAGATATTTTTACTTTT | 8.59 ± 0.33 |
| GTAAATATTTGTTGGGTGCTATCAATTATTTCAAAG | 8.61 ± 0.33 |
| TGCGGAAATAAGTGCACACATAGATATATGTATTTT [CACACA_site3689] | 9.1 ± 0.45 |
| ATATATATTAATAATGCATGTGATATAAATTAATAT [TGCATGCA_site930] | 8.81 ± 0.33 |
| ATCTATATCTATAATACACACATCATAAAATATGTA [CACACA_site7230] | 8.53 ± 0.27 |
| ATATTATATATGTATAGTACATATTATAAGAAAAAT [XGTACX_site3457] | 8.52 ± 0.37 |
| CGGCACATTCTATATACACACATATAAATATATACA [CACACA_site566] | 8.45 ± 0.42 |
| TACAATTCGTAATACACACACATATAAATAAATATT [CACACA_site7720] | 8.44 ± 0.38 |
| TGATCAAGTAAGAAAAGTACAAAAAAAGTAAAAAAT [XGTACX_site6529] | 8.95 ± 0.54 |
| GTTCTTTCAAATTATACACACCAAAAAAAAAAAAAA [CACACA_site5660] | 8.41 ± 0.33 |
| GATATGTTTTATTATGTTGATGATAACAGGTAGTTT [CACACA_negctrl_site356] | 8.46 ± 0.38 |
| GCGTGTGTACAATGAGTGCATATCTAAAGGGAAGAT | 9.3 ± 0.33 |

| Sequence | gcPBM binding intensity (ln) |
| --- | --- |
| ATAAGTTTTTATTTTCTGCACTGTCGAATAATAGTT | 8.71 ± 0.31 |
| AAAAAAAACATACATACACACACATAAATATATATA [CACACA_site8864] | 8.9 ± 0.4 |
| ATGGATTATTTTTAAACATGCAGTAGTGATGAAAAA [TGCATGCA_site346] | 8.74 ± 0.4 |
| TATATTATAATATTCACACACTAACGTAAATCATTG [CACACA_site7318] | 8.48 ± 0.42 |
| TGGCAAAATAGGCACACACACATATACAGATATATT [CACACA_site4727] | 8.57 ± 0.59 |
| TCAATGAAATTAATATGTACATATTTTTATATAGTA [XGTACX_site7955] | 8.32 ± 0.28 |
| AAAAAATATATATATATATATATGTAATATTTTTTT [XGTACX_negctrl_site439] | 8.36 ± 0.33 |
| AAAACTATAAAAATTTTACACACTGTTTTTAAATAA [CACACA_site3667] | 8.32 ± 0.38 |
| AGTAGCAAATATTAAGTGCATATTATATAATGTGTA [GTGCAC_site9546] | 8.64 ± 0.28 |
| TTTTTTTTTTTTTTTTGTACATATACATATATATAT [XGTACX_site1981] | 9.3 ± 0.11 |
| ATAAATATGGCAGTACGTACGTATATTCATATTCAT [XGTACX_site8042] | 8.56 ± 0.37 |
| ATTAAAAAAAAAAAAAAAAAACAAAAAAAAAAAAAA [CACACA_negctrl_site1187] | 8 ± 0.36 |
| TGTTCAGTATGGCACACACACAACAAAATAAAAAAA [CACACA_site4368] | 8.66 ± 0.47 |
| GGTTTACCCTATAAATGTACTCATAAATTATATATA [XGTACX_site5771] | 8.4 ± 0.3 |
| ATACGAAATAGAAACACACATACAATAAATAAATAT [CACACA_site2017] | 8.92 ± 0.42 |
| TAAGTGATCGCATAATGTACATATTATTTATTATTT [XGTACX_site3061] | 8.56 ± 0.24 |
| CATACATACATACATACACACATATATAAATATATG [CACACA_site7028] | 9.22 ± 0.18 |
| GGAAGGATATAACATACACACACACCCATATATATA [CACACA_site9376] | 8.95 ± 0.44 |
| TACATTTAAAAAAAAACACACATATTTATATTTATA [CACACA_site7236] | 8.01 ± 0.49 |
| TTTCCTGGTCAAGGGGTTACGGTTACGTCCTCTTGC [CACACA_negctrl_site856] | 8.34 ± 0.5 |
| CATATACATAGACACACACACACATAAATAAATATA [CACACA_site6749] | 8.66 ± 0.58 |
| TTATGTATTTATTTATGTACTAATTGTATGCATATT [XGTACX_site6436] | 8.7 ± 0.24 |
| ATTTGTATATATAATTGTACGCATATTCTATACGAT [XGTACX_site7367] | 8.46 ± 0.35 |

| Sequence | gcPBM binding intensity (ln) |
| --- | --- |
| ATACTTTATAAATACTAAAGTGTATTTTGTAATATA [CACACA_negctrl_site1710] | 8.16 ± 0.3 |
| AAAAATATGAAAGTAACTAAGTTGTTATTGATAACA [CACACA_negctrl_site1608] | 8.43 ± 0.29 |
| ACGTTAGGCTTATTTGCACACTTGTATTATAATTTT [CACACA_site1317] | 8.96 ± 0.38 |
| ATATTATCACAAGGTGGTACACAAAAAAAAAAAAAA [XGTACX_site8224] | 8.74 ± 0.26 |
| ATAAATATGGAGCACACACACATAAACATACAGATA [CACACA_site4395] | 8.82 ± 0.52 |
| TACTTTCACATTAAATGTACGTATAGTTTCATTCTT [XGTACX_site8528] | 8.78 ± 0.36 |
| ATATTAAAAATATATACACACATATATATAAATATA [CACACA_site2257] | 8.03 ± 0.3 |
| TTTGGAGAATTCATAGTGCATTTATTTATTGTTAAT | 8.41 ± 0.042 |
| TATATTTAAGTACATAAATAAGCCCATTTACATACA [CACACA_negctrl_site1224] | 8.48 ± 0.21 |
| TTCTAAAATTATATAGTGCAATTATTTTATTTTTCT | 8.28 ± 0.26 |
| AAAAAAATAAAACACATACATATATGTATATATATA [GTGCAC_negctrl_site390] | 9.075 ± 0.021 |
| TAAATATATATATAAGTGCATTATATATATATATAA | 8.58 ± 0.028 |
| ATATGATAGTTTATATGTACATAAATAAATACATAC [XGTACX_site2917] | 8.6 ± 0.27 |
| ATTAATAATTATTATGGTACACATGTAACTACTCTC [XGTACX_site198] | 8.76 ± 0.35 |
| ATCTCTTACATATTCACACACATATAAATAACTACA [CACACA_site6816] | 8.86 ± 0.41 |
| AAAGAAAAAAAATAATGTACATATGTATTTGAGAAA [XGTACX_site3571] | 8.69 ± 0.38 |
| TGTAGAAGAACCCATGCATGCAGTATGAAAAAAAAA [TGCATGCA_site907] | 9.8 ± 0.18 |
| AAAAAAAGAAAAAAACGTACATGAAAATTTTTTGTT [XGTACX_site5135] | 8.77 ± 0.27 |
| ATAAATCCCAAAACCTTGCAAGACAACGTTTGATCA [CACACA_negctrl_site1327] | 8.31 ± 0.34 |
| CTATATAAAAAAATTGCACACATAAATATATACATA [CACACA_site8325] | 8.35 ± 0.33 |
| GAAACATACATTTTTTGTCCGTAAGTATTATAATAA [XGTACX_site3273] | 8.59 ± 0.3 |
| ATACATCAAGGACACACACACACACCCACACCCACA [CACACA_site8013] | 8.64 ± 0.4 |
| CACATAAAAATTGTGTTGCACTTTTATTCTTATATC | 8.43 ± 0.23 |

| Sequence | gcPBM binding intensity (ln) |
| --- | --- |
| ATTTTGCCTGACCCATGTACATATTATTTTTTGCAT [XGTACX_site2258] | 9.41 ± 0.4 |
| CTATGAATAGGAAAAAGTACTAAACCTTTATATATA [XGTACX_site5022] | 8.26 ± 0.29 |
| TCAAATATTCATAAATGTACATTTATTTTTCTCCTT [XGTACX_site5827] | 8.57 ± 0.44 |
| TAACTTAATATTAATGCACACAATTTATATATATAT [CACACA_site3903] | 9.79 ± 0.13 |
| TTTATATATTTTAGGTGTACATAAATTTTTATATAT [XGTACX_site5597] | 8.37 ± 0.33 |
| AACTTACTTGGACATACACACATATATATATATATA [CACACA_site2978] | 10.2 ± 0.44 |
| AGTAGAATATCCCCTACACACCCAAATAATTTACAA [CACACA_site8339] | 9.27 ± 0.64 |
| TTTTGTTGAAAAAAAAAAAAAAAATTAAATTAAATT [GTGCAC_negctrl_site636] | 8.12 ± 0.34 |
| CATAGACACGAACATACACACGGACATACATACGGA [CACACA_site8101] | 8.93 ± 0.71 |
| GTAACAAATTAATAGTGTACATATTTTAAAAAAATA [XGTACX_site7150] | 8.4 ± 0.34 |
| GTGTTAAATTTTTGAACATGCAAGTTTTATTATTGA [TGCATGCA_site478] | 9.34 ± 0.33 |
| AATGCAAAGGTGAAAGAACACACAAAAAAAAAAAAA [CACACA_site9333] | 8.55 ± 0.64 |
| ATATTATAAATATAATGTACGTTTTAATTTCATGTT [XGTACX_site3557] | 8.48 ± 0.4 |
| ATATATAATTATTGAAGTACTTGTTCATAAAATGGT [XGTACX_site5656] | 8.74 ± 0.38 |
| AAAATAAAATGAAAACGTACATGATAAATTTTAATT [XGTACX_site4199] | 8.8 ± 0.47 |
| TATATGAGCATAAAGACACACAAATAAAACCAAACA [CACACA_site3856] | 8.88 ± 0.45 |
| AGAACAATTCTGTGGTGTACCAAAAAAAATTTAATT [XGTACX_site8082] | 8.52 ± 0.37 |
| AAAATAAATAAATATACACACCATATTTATATTTTT [CACACA_site7361] | 8.34 ± 0.38 |
| ATATTTAAATTTTGCACACGCATATGAAATTAGGAC [CACACA_site1035] | 8.88 ± 0.3 |
| TAAATGAATTTTACTATACACACGTATACATTTGTA [CACACA_site1210] | 8.34 ± 0.49 |
| TAATTTGTTATTTATTGTACAAACATTATATGTTAA [XGTACX_site6637] | 8.38 ± 0.38 |
